The values below come from paper PMC10914751.

By UniProt entry, the sequences of proteins in these tests, tags left out. Where a name states a change or a piece, a line headed by the entry shows the natural chain unless it says otherwise. Chains listed by the source or under a name are the forms on record and can include a tag or linker. Residues count along the entry.
UniProt P12520: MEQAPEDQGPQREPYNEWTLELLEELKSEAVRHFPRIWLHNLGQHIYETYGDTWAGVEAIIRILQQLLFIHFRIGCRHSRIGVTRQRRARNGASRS
mGFP-STREP-TEV-fused Vpr(51–96) (HIV-1 (NL4-3 isolate)): residues 51-96 of P12520
mGFP-STREP-TEV-fused Vpr(75–96) (HIV-1 (NL4-3 isolate)): residues 75-96 of P12520
VprBP AR (residues 1401–1507) (Q9Y4B6, residues 1401-1507): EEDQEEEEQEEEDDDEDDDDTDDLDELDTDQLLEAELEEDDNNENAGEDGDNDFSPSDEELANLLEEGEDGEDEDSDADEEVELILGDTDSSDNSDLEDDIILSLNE
VprBP(1401–1450) (Q9Y4B6, residues 1401-1450): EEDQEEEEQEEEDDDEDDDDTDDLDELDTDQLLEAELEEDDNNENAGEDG
His-Maltose binding protein (MBP)-fused VprBP(1446–1507) (Q9Y4B6, residues 1446-1507): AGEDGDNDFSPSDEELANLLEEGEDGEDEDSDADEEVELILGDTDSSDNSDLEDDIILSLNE

These are yes or no findings as the source states them, for the method shown. For some assays here: In cells and extracts the contact can be indirect. Some entries that bind do so weakly or less than the wild type.

In test [1] the target is mGFP-STREP-TEV-fused Vpr(75–96) (HIV-1 (NL4-3 isolate)) (UniProt P12520). As to the kind of experiment: co-IP; STREP-Vpr or mGFP-STREP-containing Vpr ligands precipitated from cells transfected with the indicated constructs; immunoblot.
The target of test [2] is mGFP-STREP-TEV-fused Vpr(51–96) (HIV-1 (NL4-3 isolate)) (UniProt P12520). The test is described as above.
Test [3] has as its target STREP-Vpr (HIV-1 (NL4-3 isolate)) (UniProt P12520). The test is described as above.
Test [4] has as its target mGFP-STREP-TEV-fused Vpr (HIV-1 (NL4-3 isolate)) (UniProt P12520). Described as above.
Test [5] deals with VprBP(1446–1507) (transfected) (UniProt Q9Y4B6). As to the kind of experiment: co-IP; HEK293T cells transfected with the indicated constructs; TBSN buffer (20 mM Tris-HCl pH 8.0, 120 mM NaCl, 0.5% Nonidet P-40, 5 mM EGTA, 1.5 mM EDTA, 2 mM DTT); immunoblot; Supplementary Fig. 2b under thymidine or nocodazole treatment.
For the next test, the target named is VprBP(1401–1450) (UniProt Q9Y4B6). The test is described as above.
In test [6] the target is VprBP AR (residues 1401–1507) (UniProt Q9Y4B6). The test is described as above.
The target of test [7] is His-Maltose binding protein (MBP)-fused VprBP(1446–1507) (UniProt Q9Y4B6). The test can be described thus: SEC; co-elution of MBP-VprBP(1446–1507) and CPB(581–808), Coomassie-stained SDS-PAGE of fractions; whether co-expressed or mixed is not told.

B1: full-length Plk4 (transfected) (protein, UniProt O00444 1-970)
chain: MATCIGEKIEDFKVGNLLGKGSFAGVYRAESIHTGLEVAIKMIDKKAMYKAGMVQRVQNEVKIHCQLKHPSILELYNYFEDSNYVYLVLEMCHNGEMNRYLKNRVKPFSENEARHFMHQIITGMLYLHSHGILHRDLTLSNLLLTRNMNIKIADFGLATQLKMPHEKHYTLCGTPNYISPEIATRSAHGLESDVWSLGCMFYTLLIGRPPFDTDTVKNTLNKVVLADYEMPSFLSIEAKDLIHQLLRRNPADRLSLSSVLDHPFMSRNSSTKSKDLGTVEDSIDSGHATISTAITASSSTSISGSLFDKRRLLIGQPLPNKMTVFPKNKSSTDFSSSGDGNSFYTQWGNQETSNSGRGRVIQDAEERPHSRYLRRAYSSDRSGTSNSQSQAKTYTMERCHSAEMLSVSKRSGGGENEERYSPTDNNANIFNFFKEKTSSSSGSFERPDNNQALSNHLCPGKTPFPFADPTPQTETVQQWFGNLQINAHLRKTTEYDSISPNRDFQGHPDLQKDTSKNAWTDTKVKKNSDASDNAHSVKQQNTMKYMTALHSKPEIIQQECVFGSDPLSEQSKTRGMEPPWGYQNRTLRSITSPLVAHRLKPIRQKTKKAVVSILDSEEVCVELVKEYASQEYVKEVLQISSDGNTITIYYPNGGRGFPLADRPPSPTDNISRYSFDNLPEKYWRKYQYASRFVQLVRSKSPKITYFTRYAKCILMENSPGADFEVWFYDGVKIHKTEDFIQVIEKTGKSYTLKSESEVNSLKEEIKMYMDHANEGHRICLALESIISEEERKTRSAPFFPIIIGRKPGSTSSPKALSPPPSVDSNYPTRERASFNRMVMHSAASPTQAPILNPSMVTNEGLGLTTTASGTDISSNSLKDCLPKSAQLLKSVFVKNVGWATQLTSGAVWVQFNDGSQLVVQAGVSSISYTSPNGQTTRYGENEKLPDYIKQKLQCLSSILLMFSNPTPNFH
On to B1, for which the binding entry in test [1] is given as “binds weakly”; in test [2], “binds weakly”; in test [3], “binds”; in test [4], “binds”; in test [5], “binds”; with VprBP(1401–1450) it was “no binding”. Also, in test [6], the binding entry is recorded as “binds”.

B2: Plk4 CPB(581–808) (domain or fragment, UniProt O00444 581-808)
chain: GYQNRTLRSITSPLVAHRLKPIRQKTKKAVVSILDSEEVCVELVKEYASQEYVKEVLQISSDGNTITIYYPNGGRGFPLADRPPSPTDNISRYSFDNLPEKYWRKYQYASRFVQLVRSKSPKITYFTRYAKCILMENSPGADFEVWFYDGVKIHKTEDFIQVIEKTGKSYTLKSESEVNSLKEEIKMYMDHANEGHRICLALESIISEEERKTRSAPFFPIIIGRKPG
Take B2: the binding result in test [7] is on record as “binds”.
